Values of other authors in patent US20180220653A1, “Methods for Identifying Compounds that Directly Bind to Insect Transient Receptor Potential Channels” (priority 2015, published 2018).

Experiments:
[1] = biological target: T1, insect TRPV channels, Nan and Iav (Drosophila melanogaster, UniProt M9PI57+Q9W3W0); conditions: CHO cells co-infected with Nan and Iav; Nesterov et al., 2013; 2015; cited from earlier work
T1 sequence (M9PI57 1-834): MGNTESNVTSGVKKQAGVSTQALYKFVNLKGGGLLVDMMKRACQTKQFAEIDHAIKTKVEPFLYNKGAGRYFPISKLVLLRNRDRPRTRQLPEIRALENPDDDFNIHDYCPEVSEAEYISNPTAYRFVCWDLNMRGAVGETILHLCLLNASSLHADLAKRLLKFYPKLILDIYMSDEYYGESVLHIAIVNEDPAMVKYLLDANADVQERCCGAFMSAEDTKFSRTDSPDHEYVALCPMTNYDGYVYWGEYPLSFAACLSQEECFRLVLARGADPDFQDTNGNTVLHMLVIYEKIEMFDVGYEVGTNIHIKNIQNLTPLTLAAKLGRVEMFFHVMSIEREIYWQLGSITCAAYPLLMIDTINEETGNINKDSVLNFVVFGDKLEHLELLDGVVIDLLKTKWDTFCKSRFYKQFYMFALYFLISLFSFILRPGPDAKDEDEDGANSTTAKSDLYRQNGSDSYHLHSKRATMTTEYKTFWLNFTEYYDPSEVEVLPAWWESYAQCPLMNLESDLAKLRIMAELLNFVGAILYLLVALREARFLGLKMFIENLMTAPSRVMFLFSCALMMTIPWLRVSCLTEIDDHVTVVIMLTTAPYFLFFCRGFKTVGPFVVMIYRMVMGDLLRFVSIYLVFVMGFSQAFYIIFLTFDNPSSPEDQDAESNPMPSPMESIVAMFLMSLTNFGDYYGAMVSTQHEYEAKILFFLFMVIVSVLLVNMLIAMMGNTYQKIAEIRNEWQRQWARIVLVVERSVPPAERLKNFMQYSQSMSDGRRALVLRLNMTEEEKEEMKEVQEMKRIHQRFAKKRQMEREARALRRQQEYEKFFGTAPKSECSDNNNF
T1 sequence (Q9W3W0 1-1123): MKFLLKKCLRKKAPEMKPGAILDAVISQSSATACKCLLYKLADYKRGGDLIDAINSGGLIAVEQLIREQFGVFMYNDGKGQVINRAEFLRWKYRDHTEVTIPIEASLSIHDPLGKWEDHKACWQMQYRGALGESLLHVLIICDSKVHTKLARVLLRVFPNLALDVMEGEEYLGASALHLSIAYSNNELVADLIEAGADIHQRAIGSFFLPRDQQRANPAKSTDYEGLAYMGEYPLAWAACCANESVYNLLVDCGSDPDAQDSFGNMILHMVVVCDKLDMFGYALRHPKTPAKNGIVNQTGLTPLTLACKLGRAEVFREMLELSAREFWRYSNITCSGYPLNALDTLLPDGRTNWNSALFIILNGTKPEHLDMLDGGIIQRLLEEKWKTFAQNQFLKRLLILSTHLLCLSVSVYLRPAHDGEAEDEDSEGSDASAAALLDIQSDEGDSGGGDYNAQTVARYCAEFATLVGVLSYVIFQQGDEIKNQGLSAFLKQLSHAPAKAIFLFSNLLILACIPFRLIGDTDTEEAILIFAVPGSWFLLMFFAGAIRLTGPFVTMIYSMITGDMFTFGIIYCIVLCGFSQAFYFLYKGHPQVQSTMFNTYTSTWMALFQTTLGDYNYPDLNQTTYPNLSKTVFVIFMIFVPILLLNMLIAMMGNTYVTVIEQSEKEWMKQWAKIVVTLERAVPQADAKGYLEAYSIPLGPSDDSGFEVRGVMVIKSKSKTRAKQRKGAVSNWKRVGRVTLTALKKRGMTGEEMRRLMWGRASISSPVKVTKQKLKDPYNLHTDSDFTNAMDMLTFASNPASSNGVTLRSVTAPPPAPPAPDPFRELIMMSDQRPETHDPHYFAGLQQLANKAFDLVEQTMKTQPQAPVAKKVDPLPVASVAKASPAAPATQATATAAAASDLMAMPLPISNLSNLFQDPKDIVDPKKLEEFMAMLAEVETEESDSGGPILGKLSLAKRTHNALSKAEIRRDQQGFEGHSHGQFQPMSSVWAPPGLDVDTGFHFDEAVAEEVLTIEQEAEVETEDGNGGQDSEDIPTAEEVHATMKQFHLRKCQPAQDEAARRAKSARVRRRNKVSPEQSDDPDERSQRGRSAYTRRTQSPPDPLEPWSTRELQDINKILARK

[2] = biological target: T1, insect TRPV channels, Nan and Iav; conditions: CHO cells co-infected with Nan and Iav; Nesterov et al., 2013; 2015; cited from earlier work; remark: listed apart in the source

Row | Compound | calcium mobilization [1] | membrane depolarization [2]
1 | CC1=NNC(=O)N(/N=C/c2cccnc2)C1 [pymetrozine] | elicited calcium mobilization | membrane depolarization
2 | CC(=O)N1C(=O)N(NCc2cccnc2)Cc2cc(C(F)(C(F)(F)F)C(F)(F)F)ccc21 [pyrifluquinazon] | elicited calcium mobilization | membrane depolarization
3 | O=C1Nc2ccc(C(F)(C(F)(F)F)C(F)(F)F)cc2CN1NCc1cccnc1 [N-deacetylated pyrifluquinazon] | elicited calcium mobilization | membrane depolarization
